Reference: the supplement of paper PMC3334620
In all, about 33,000 sequences were measured (“E-score (-0.5 to 0.5)”: median about -0.011, highest 2% from about 0.28 on). The list shows a part of the results.

target: T1, Gcr1 (UniProt P07261); assay: PBM E-score (8-mer binding enrichment) (E-score (-0.5 to 0.5)); higher = stronger / more preferred TF binding; most listed sequences are background and not binding sites; conditions: protein concentration: 100 nM; construct: GST-full length
T1 sequence: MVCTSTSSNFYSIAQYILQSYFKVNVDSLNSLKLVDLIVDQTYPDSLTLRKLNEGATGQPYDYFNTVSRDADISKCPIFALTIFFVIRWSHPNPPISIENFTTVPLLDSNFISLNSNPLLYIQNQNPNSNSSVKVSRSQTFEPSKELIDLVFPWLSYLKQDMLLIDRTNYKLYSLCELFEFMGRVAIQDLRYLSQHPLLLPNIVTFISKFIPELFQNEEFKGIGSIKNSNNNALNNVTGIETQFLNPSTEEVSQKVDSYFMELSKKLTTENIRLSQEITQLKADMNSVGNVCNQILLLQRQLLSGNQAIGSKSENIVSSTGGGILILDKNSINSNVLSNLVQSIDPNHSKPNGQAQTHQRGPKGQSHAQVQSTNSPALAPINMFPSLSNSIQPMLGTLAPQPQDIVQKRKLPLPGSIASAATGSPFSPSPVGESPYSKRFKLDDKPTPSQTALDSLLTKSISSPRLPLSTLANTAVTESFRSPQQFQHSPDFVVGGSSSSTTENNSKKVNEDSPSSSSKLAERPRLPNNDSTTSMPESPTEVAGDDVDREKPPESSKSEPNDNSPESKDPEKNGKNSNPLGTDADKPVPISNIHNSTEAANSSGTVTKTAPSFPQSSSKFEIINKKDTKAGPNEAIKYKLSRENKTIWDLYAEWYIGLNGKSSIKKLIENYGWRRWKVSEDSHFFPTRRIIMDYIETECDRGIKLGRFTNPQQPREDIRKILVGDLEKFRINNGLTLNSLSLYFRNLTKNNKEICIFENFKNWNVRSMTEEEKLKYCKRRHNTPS
Procedure, shortened: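 E-scores (a modified Wilcoxon-Mann-Whitney statistic) were assigned by the Universal PBM Analysis Suite to every ungapped eight-base word pooled with its reverse complement. The input came from universal all-10-mer Agilent arrays made double-stranded by primer extension and probed with GST-tagged yeast transcription factors at about 100-200 nM. Fluorescent anti-GST detected bound protein, and masliner normalised the scans.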

Sequence	PBM E-score
CACTCTTC	-0.104
CAGCCCCG	-0.107
CCATAGCC	-0.216
CCGGCCGA	-0.282
TAGCGTCA	-0.0764
CGCCATTA	0.0561
CTGCAAAC	-0.103
CAGCAAGA	-0.0717
AATCGCTG	-0.119
CGAATGTA	-0.0414
AATCCCCC	-0.052
GCGGCAAA	0.0284
ATGTAATC	0.0608
CCGTCTTA	-0.0255
GACTTGAC	-0.229
AATGAAGC	-0.0835
CCCTGTCC	-0.206
ACCGCTTA	-0.145
TAGGAAAA	-0.0363
CTCCTAAA	0.147
CAATATTA	0.229
AAGCTCGG	0.0128
AGGCGGAG	-0.046
AGTCGGCA	0.00966
GCGCAGCC	0.292

Sequence	PBM E-score
ATTGTTCC	-0.103
AGAGATTG	-0.0488
AGAGCTGA	-0.0426
AAGAAGCT	0.386
ATGCTTAG	-0.209
AACAAGCG	0.0654
TACCGAAA	0.184
CCTTACAC	-0.163
TACACAGA	-0.106
CAATGTCG	0.0643
AATGAGTC	-0.117
AGCGCCTG	0.0396
GACCATTA	0.0843
ACTTACAC	0.0704
CTTAGCGA	-0.157
GCGTTGCC	-0.16
AGACTACT	0.0822
ACAAATGA	-0.0167
CGAGCCGC	0.0292
ATCCTAAC	0.0385
AGGTAAGG	-0.0333
CATAGGGG	-0.0724
GCCGACCA	0.0427
GGACGCCA	0.418
AGGATTAA	-0.105

Sequence	PBM E-score
ATGGTCAG	0.1
TATGAAAA	0.131
GAACTGGA	0.303
CGCGTGAA	0.179
GGAGCTAA	-0.0417
AACATGGT	-0.175
TGAGCTAA	0.023
AGAGACAA	-0.00305
GATAGGCA	0.0323
CAAACTCC	-0.012
CCAGCGTC	0.314
CACTCATC	-0.253
CGCGCCAC	-0.154
AGACCCAA	0.148
CAAAACCC	0.126
AGTAGCAA	0.111
GGTGAGTA	-0.174
AGCAGCGC	0.227
AGGACTTC	0.0819
AAACAAGA	0.111
AGACCACG	-0.199
GTGGAAAA	0.0634
GTGCGAAA	0.069
CTTACAAA	0.166
ACCGCCGA	-0.119

Sequence	PBM E-score
ACATGCCT	-0.253
TATTGTCA	-0.202
ATTCTGAG	0.0582
ATTTCACA	0.0194
GTCACTGA	-0.0786
CATCTTCG	-0.156
AGATCTGG	0.00449
AATTCCGA	0.142
AGAGATTC	0.0299
GGCAACAA	0.0878
TAGTTATA	0.0439
ACACGAAA	-0.131
GTCAATTA	0.0261
ACGGTGCG	-0.0609
CGCGATCC	0.138
GACAATGC	-0.145
GAGATCCA	0.174
CCCCGTAC	-0.138
GGCTGCCA	0.418
AACGGAGC	-0.0347
CAGATGTC	0.0248
ACTCCCGG	0.0498
CACACGTC	-0.056
AAGTCACT	-0.0575
AAGATCTC	-0.189

Sequence	PBM E-score
GGGAACAC	-0.0854
AATACTAG	0.163
CGACCAAC	0.00092
ACGGGGCC	0.149
CTCGATCC	-0.217
CTTTAAGC	-0.153
CTCTACCC	0.0307
ATGACAGC	-0.13
GAGGAAGC	0.391
CCTCCCTA	0.0566
CTCAGCTC	-0.0488
GATGGAGA	-0.0403
AACCAACG	-0.019
TATTTCGA	0.192
GGTGGTAC	-0.114
AGACACCG	-0.0705
ACCCATGC	-0.0954
TCATCAGA	0.0269
CCAGTCAC	0.0584
CTGCGGCA	-0.0514
CGTTACCC	-0.133
AACCGCCA	0.0527
GAAATAGC	0.107
TGATCAAA	-0.0622
ATAGTAAA	-0.0491

Sequence	PBM E-score
CAACCCGG	-0.0256
CCGTCGGC	-0.216
AGCGAGCC	-0.13
AGAGAGTC	-0.195
ACCCAAGA	0.197
GACGTACA	-0.135
GTTTCAGA	0.116
AGCTCTGG	-0.0058
AAAATGTC	-0.00676
CGCGCACA	0.126
ATGGTTCC	0.0654
CAATGGTG	-0.0818
CAACTTGC	-0.019
GTGGGAGA	0.0205
CGACCGAG	-0.129
CATCGAGA	0.0824
AAAATTGC	-0.203
CTCAGAAG	0.0485
CATAACAA	0.0427
ACGGGTGG	-0.0399
AGACCGCT	-0.2
CCACCTAA	0.124
ATGCTAAC	0.139
ACTCCGAC	-0.0804
CCTGGACC	0.0352

Sequence	PBM E-score
ACCCCACG	-0.00578
ATCGGAAC	0.0188
GCGCTAAC	-0.00259
CAGGCAAA	-0.0259
AAGTCGCC	0.226
GTGGGCAA	-0.153
AACTTGGC	0.111
AGCCTGAA	-0.042
ATGCTCGC	0.0405
CTAACTAA	0.0648
AAATCCCC	0.0704
CCAGAGCG	-0.144
ACGTCTAC	0.0685
GACGCATA	0.141
ACCATTGG	-0.0371
ACTCCCTC	0.0192
ACTGACGG	-0.252
ACCCCGAG	-0.00642
CGGGAACG	-0.0928
AGTCCTCG	-0.0287
AGGCCTGC	-0.299
GGAGCGGA	0.187
AAGTGTGG	0.0185
ATCACACA	0.00682
CATCGACA	-0.041

Sequence	PBM E-score
CATGAATA	0.0347
ACACACTC	0.0505
AACGCCTA	-0.0917
GGAGAGTA	-0.163
TCTTAGAA	0.153
CACTTATA	0.0692
CTGCCAGC	-0.0221
CCAGAGTA	0.138
ACTGCAAG	-0.185
ACACACTG	-0.135
CGACTTCA	-0.00578
ACAATACG	0.0013
ACTTTTGA	0.142
ACCATCGC	-0.0758
AGAAGCAA	-0.0109
AACCGCTC	-0.0603
AGAGATCG	-0.261
CACAAGTA	0.038
CCCAACCG	-0.059
AGGATTGG	-0.0356
ACGTGTCT	-0.00617
CCGAGGAA	0.153
CATGTAAG	-0.0563
CTAAGGCC	0.046
AATCCACT	0.184

Sequence	PBM E-score
GCCTCGCA	-0.223
AAAAGAGA	0.0417
AATTATAC	0.155
AGACAACG	-0.134
CGGATGAG	-0.0805
ACGGTAGA	0.138
ATGCCGGG	0.106
ACTTTGCG	-0.0698
ATGAGCAG	-0.0902
ACCATCCG	-0.0358
TCAGCTGA	-0.106
ACCCATCG	0.022
CCTACACA	-0.0978
CCAAATTA	0.138
AAACCGAA	-0.116
CCCTAACG	-0.0412
CCACTTTA	0.248
GCGTGTTA	-0.0448
AACATCCG	0.164
AACTTTGC	-0.0423
CGAGTTTA	0.0307
GTTGCTTA	0.148
ACAGTGCA	-0.143
CACGGATA	-0.0209
ACTTCATA	0.0583

Sequence	PBM E-score
AATAGCCG	-0.0191
CATTGTTC	-0.0803
GCTATTGA	-0.21
AAAGTGCC	-0.104
CAATGACC	-0.309
GCGTGATA	-0.115
CTGAGGTA	0.0147
ACACATAT	0.111
CACTAAGG	0.241
AGCGCAAC	-0.124
CACTTCAC	-0.143
CGGATTGC	-0.182
AAGTCAAG	-0.129
CTTTGAAC	-0.101
TCAAACAA	0.0125
ATGTTCTG	0.0622
CCATTCCG	-0.0365
CAGTCTGA	-0.112
ATTCTCCC	-0.0216
GGACCTCC	0.00641
GCATTAGC	0.00604
CGGTCGAA	-0.188
ATTAAGAA	0.21
ATCCAGAA	0.267
GAGAAATA	0.00474

Sequence	PBM E-score
AATAAGGC	-0.0902
GGGTACCA	0.204
ATCGCCTA	0.0205
ACAGAGTA	-0.133
TACCTTAA	0.177
GACTATAC	-0.0161
ACGTTTTA	-0.00281
CCGTATAA	0.195
CCGGGGGC	-0.0705
ACAGAGCT	-0.297
CAGTCAGA	0.0802
AAATCGTT	-0.0365
CCAGGCAG	-0.124
CCCTGCCA	0.0623
CCCGTTTA	0.271
CACCCCAA	0.0963
ACAAATAG	-0.0199
CTTGCCAC	-0.257
GTTGGGCA	-0.0428
AGTGCTTA	-0.117
AGTGGGCC	-0.0804
GGTCTATA	-0.00313
AATACACT	0.106
GCCTTTAC	-0.0514
GGTATTGA	-0.199

Sequence	PBM E-score
AAGTAGGT	0.00396
ATGCGGGA	0.212
CTCCTATC	-0.016
ATTTTAAA	0.182
GTGTAAAA	-0.115
ACCTTCTG	0.102
ATGAGCCG	-0.116
GAGTTCCC	-0.0372
AGAGTATA	-0.202
AGACTTTC	-0.156
CTATCTCA	-0.0521
AAACCCCC	-0.23
ACATAATC	-0.0277
CAAGCTTG	0.0375
ATGCCCTG	-0.127
GATGCGTA	0.135
CAGTTCTC	-0.123
AGAGGAAT	0.135
GTAAGGTA	0.157
GCGCCGCC	0.224
ATTCTACG	-0.194
GTGTACTA	-0.0173
GTCGGAAA	0.0896
AATACGGG	0.121
CGCCCGTC	-0.0567

Sequence	PBM E-score
AAGACCTA	0.0634
ACAGCGCC	-0.0264
ACAGGTCA	-0.111
CTCGGGTA	0.135
AATTTCAT	0.0846
CGGGACCA	0.00102
CATTTGAG	0.0479
CACTGCTG	-0.0169
ATTCCCCG	-0.0914
GCTGTCGA	-0.192
CCCTATCC	-0.173
CACTTACA	-0.158
AAAGAAAT	0.132
GGGGCTCA	-0.0765
AAAAAGCG	0.117
ACCGACAA	0.0337
CTGAGTGA	0.178
AGTAGATC	0.0883
AAGTCCCA	-0.2
AATATTCA	-0.131
CAACAGTA	0.0711
AAAGTTCC	0.074
CACAAATC	0.145
CATTGGTC	-0.113
GGGGTGGA	-0.229

Sequence	PBM E-score
AACGAAAG	0.0045
GTTTTCGA	-0.00716
CGTGAGCC	-0.101
CAGTTCGG	0.0773
ATGTGTCG	-0.015
CACCTCTC	-0.241
CTAAGATA	0.0423
AGTTTATG	0.104
GAGCCGGC	-0.0542
TCATGAAA	0.0894
TGTGTGAA	-0.0238
AGGTGGCG	-0.00306
ACCTTGGG	-0.13
ATCAATTA	0.174
ACTTTCCG	-0.134
AGCAATAC	0.0924
AATCTTAT	0.00527
AACATGTA	0.101
ACTTGAGA	-0.00095
